Experimental data: PubChem BioAssay (Tox21)
Several values for one entry are separate records, joined by “and”; a condition that tells them apart may be missing. Equal entries are not always repeated. The shares of active, inactive and inconclusive entries below differ from those in the screen. Potencies beside an inconclusive call are fits to weak or partial responses and may not hold up. The source holds several records for some structures; these can differ, active in one and inactive in another. Activity calls are given as the source filed them. Unless noted, the call rests on the fitted dose curve.

Experiments:
[1] = qHTS assay for small molecule agonists of the p53 signaling pathway (AID 651631); settings: HCT-116 p53RE-bla reporter, beta-lactamase FRET ratio, 16 h; activation: at 73.3 µM (top of the series) unless noted; further: nearly all actives have a fitted effect of over 15% in size; on activation: on the % scale 0 is the no-effect control and ±100 the full control effect
Outline: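 Testing took place in human colorectal HCT-116 cells with stable p53RE-driven beta-lactamase. After 16 h of compound exposure at 37 °C, a FRET substrate was added and fluorescence recorded 2 h later.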

[2] = qHTS assay for small molecule agonists of the p53 signaling pathway - cell viability (AID 651633); settings: p53RE-bla HCT-116 viability, ATP luminescence, 16 h; series mostly up to 83.3 µM; further: nearly all actives have a fitted effect of over 30% in size; on activity change, negative = cytotoxicity: on the % scale 0 is the no-effect control and ±100 the full control effect
Outline: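 p53RE-bla cells were treated with compound for 16 hours at 37 C. Cytotoxicity was then measured as CellTiter-Glo luminescence after 30 min at room temperature.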

[3] = qHTS assay for small molecules that induce genotoxicity in human embryonic kidney cells expressing luciferase-tagged ATAD5 - cell viability (AID 651634); settings: HEK293T ATAD5-luc cells viability, CellTiter-Fluor, 15.5 h; series mostly up to 83.3 µM; further: nearly all actives have a fitted effect of over 25% in size
Outline: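 Fluorescence from CellTiter-Fluor, reporting protease activity within live cells, served as the viability read-out. HEK293T cells carrying luciferase-tagged ATAD5 had been treated with compound for 15.5 hr at 37C.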

[4] = biological target: Glucocorticoid receptor (Homo sapiens) (UniProt P04150); experiment: qHTS assay to identify small molecule agonists of the glucocorticoid receptor (GR) signaling pathway (AID 720691; active means well fitted activation curve with a large enough effect in the signal ratio in the repeat runs, not every such curve was filed as active; inconclusive means weak or mixed curves, or effect the other way; inactive means no such curve, though single readings can be large or run the other way; the % refers to the signal ratio; on activation: on the % scale 0 is the no-effect control and ±100 the full control effect); settings: GR-bla HeLa, beta-lactamase reporter ratio, 18 h; activation: at 62.4 µM (top of the series) unless noted
Outline: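 Fluorescence intensity from LiveBLAzer B/G FRET substrate (2 h, room temperature) reports beta-lactamase expression driven by the glucocorticoid response element in GR-bla HeLa cells after 18 h compound exposure at 37 C.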

[5] = biological target: Glucocorticoid receptor (Homo sapiens) (UniProt P04150); experiment: qHTS assay to identify small molecule antagonists of the glucocorticoid receptor (GR) signaling pathway (AID 720692; active means well fitted inhibition curve with a large enough effect in the signal ratio in the repeat runs, not every such curve was filed as active; inconclusive means weak or mixed curves, or effect the other way; inactive means no such curve, though single readings can be large or run the other way; the % refers to the signal ratio); settings: GR-bla HeLa, beta-lactamase FRET ratio, dexamethasone-stimulated, 18 h; activity change, negative = inhibition: at 58.5 µM (top of the series) unless noted
Outline: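 HeLa GR-bla cells; cmpd + dex 5 nM final, 18 h 37 C; LiveBLAzer B/G FRET substrate 2 h RT; fluorescence intensity read. Antagonist mode, qHTS.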

[6] = qHTS assay to identify small molecule antagonists of the glucocorticoid receptor (GR) signaling pathway - cell viability counter screen (AID 720693; active means well fitted curve in the direction sought with a large enough effect in the repeat runs; inconclusive means weak or mixed curves; inactive means no such curve, though single readings can be large; an effect the other way counts as inactive or inconclusive; further: nearly all actives have a fitted effect of over 55% in size); settings: GR-bla HeLa viability, CellTiter-Glo luminescence, 18 h, with 5 nM dexamethasone present; viability change, negative = cytotoxic: at 58.5 µM (top of the series)
[7] = qHTS assay for small molecule disruptors of the mitochondrial membrane potential - cell viability (AID 720634); settings: HepG2 viability, ATP luminescence (CellTiter-Glo), 1 h; series mostly up to 83.2 µM; further: nearly all actives have a fitted effect of over 20% in size
Outline: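 Cells: HepG2, 2,000/well, attached overnight. Compound 1 hr, 37 C/5% CO2. +m-MPI dye, +CellTiter-Glo 30 min RT. Readout: luminescence (ATP).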

[8] = qHTS assay for small molecules that induce genotoxicity in human embryonic kidney cells expressing luciferase-tagged ATAD5 (AID 651632; active means well fitted curve in the direction sought with a large enough effect in the repeat runs; inconclusive means weak or mixed curves; inactive means no such curve, though single readings can be large; an effect the other way counts as inactive or inconclusive; further: nearly all actives have a fitted effect of over 15% in size; on activation: on the % scale 0 is the no-effect control and ±100 the full control effect); settings: HEK293T ATAD5-luciferase induction, 16 h; series mostly up to 83.3 µM
Outline: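 ATAD5-luc HEK293T, 2,000 cells/well; cpd or DMSO pin-transferred; 16 hr, 37C/5% CO2; Amplite 30 min RT; luminescence.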

[9] = qHTS assay for small molecule disruptors of the mitochondrial membrane potential (AID 720635; active means well fitted curve in the direction sought with a large enough effect in the repeat runs; inconclusive means weak or mixed curves; inactive means no such curve, though single readings can be large; an effect the other way counts as inactive or inconclusive); settings: HepG2 mitochondrial membrane potential, Mito-MPS dye ratio; ratio activity, negative = MMP loss: at 83.2 µM (top of the series) unless noted
Outline: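 HepG2 cells exposed to compound 1 hr at 37C, then Mito-MPS dye 30 min. Ratio read of aggregate (540/590 nm) versus monomer (490/535 nm) fluorescence.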

[10] = qHTS assay for identifying genotoxic compounds that show differential cytotoxicity against isogenic chicken DT40 cell lines with known DNA damage response pathways - wild type cell line (AID 743012; active means well fitted curve in the direction sought with a large enough effect in the repeat runs; inconclusive means weak or mixed curves; inactive means no such curve, though single readings can be large; an effect the other way counts as inactive or inconclusive; further: nearly all actives have a fitted effect of over 60% in size); settings: DT40 wild type chicken cells viability, CellTiter-Glo, 40 h; activity change, negative = cytotoxicity: at 68.4 µM (top of the series)
Outline: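 Wild type DT40, 300 cells/well, ~0.5 h settle at 37 C/5% CO2; compounds in DMSO added by pintool; 40 h at 37 C/5% CO2; CellTiter-Glo, 30 min RT; luminescence.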

[11] = qHTS assay to test for compound auto fluorescence at 460 nm (blue) in HEK293 cells (AID 720678; active means well fitted curve in the direction sought with a large enough effect in the repeat runs; inconclusive means weak or mixed curves; inactive means no such curve, though single readings can be large; an effect the other way counts as inactive or inconclusive); settings: blue autofluorescence 405/460 nm
Outline: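 HEK293 cells (2,000/well, medium with 10% dialyzed FBS) attached 4-5 hr, then exposed to compound overnight at 37C, 5% CO2. Blue fluorescence read at 405/460 nm, with triamterene as reference fluorophore.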

[12] = qHTS assay to test for compound auto fluorescence at 535 nm (green) in HEK293 cells (AID 720680; active means well fitted curve in the direction sought with a large enough effect in the repeat runs; inconclusive means weak or mixed curves; inactive means no such curve, though single readings can be large; an effect the other way counts as inactive or inconclusive); settings: green autofluorescence 485/535 nm; series mostly up to 91.3 µM
Potency means the concentration at half of the fitted maximal effect; tags describe the fitted curve by direction and shape or compound fluorescence and quenching.

UniProt P04150, sequence (P04150 whole entry, looked up): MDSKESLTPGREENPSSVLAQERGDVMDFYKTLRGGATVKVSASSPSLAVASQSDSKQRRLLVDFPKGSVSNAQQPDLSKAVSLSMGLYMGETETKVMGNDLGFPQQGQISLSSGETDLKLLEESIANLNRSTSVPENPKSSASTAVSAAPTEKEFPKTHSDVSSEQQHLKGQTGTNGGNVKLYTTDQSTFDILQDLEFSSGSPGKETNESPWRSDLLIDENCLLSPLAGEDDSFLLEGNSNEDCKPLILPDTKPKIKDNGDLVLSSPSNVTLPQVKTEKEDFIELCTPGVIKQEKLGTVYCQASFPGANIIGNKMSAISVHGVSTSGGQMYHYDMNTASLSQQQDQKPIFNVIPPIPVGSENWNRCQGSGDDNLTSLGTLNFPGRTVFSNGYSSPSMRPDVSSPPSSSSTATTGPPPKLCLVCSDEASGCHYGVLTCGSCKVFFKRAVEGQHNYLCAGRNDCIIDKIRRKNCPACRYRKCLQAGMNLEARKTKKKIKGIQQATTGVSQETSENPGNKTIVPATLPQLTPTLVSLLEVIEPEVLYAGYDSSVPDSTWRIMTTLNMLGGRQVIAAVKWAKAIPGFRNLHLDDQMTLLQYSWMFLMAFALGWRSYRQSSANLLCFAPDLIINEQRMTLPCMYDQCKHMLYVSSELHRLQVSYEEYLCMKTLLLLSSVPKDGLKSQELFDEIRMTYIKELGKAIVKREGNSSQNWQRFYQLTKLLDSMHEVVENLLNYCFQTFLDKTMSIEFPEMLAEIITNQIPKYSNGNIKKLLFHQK

## CN[C@H]1CC[C@@H](c2ccc(Cl)c(Cl)c2)c2ccc(S(N)(=O)=O)cc21
[1]
  Potency: inconclusive: 68.6 µM [cytotoxic, single point]
[2]
  Potency: inconclusive: 68.6 µM [cytotoxic, single point]
[3]
  Potency: inconclusive: 68.6 µM [falling, single point]
[4]
  Potency: inconclusive: 61.6 µM [cytotoxic]
[5]
  Potency: inconclusive: 54.9 µM [inhibitor, single point]
[6]
  Potency: inconclusive: 54.9 µM [cytotoxic, single point]

## CC=O
[1]
  Potency: inconclusive: 57 µM [cytotoxic]
[2]
  Potency: inconclusive: 80.5 µM [cytotoxic, single point]
[3]
  Potency: inconclusive: 63.9 µM [falling, single point]
[4]
  Potency: inconclusive: 36.3 µM [cytotoxic, partial curve]
[5]
  Potency: inconclusive: 36.3 µM [cytotoxic, partial curve]

## C#C[C@]1(O)CC[C@H]2[C@@H]3CCC4=CC(=O)CC[C@@H]4[C@H]3CC[C@@]21CC
[1]
  Potency: inactive
[2]
  Potency: inconclusive: 68.6 µM [cytotoxic, single point]
[3]
  Potency: inconclusive: 61.1 µM [falling, single point]
[7]
  Potency: inconclusive: 34.4 µM [cytotoxic, partial curve]
[4]
  Potency: inconclusive: 19.5 µM [rising, partial curve, poor fit]
  activation: inconclusive: -7.48% and inconclusive: -11.9%

## Cc1cc(CCN2CCN(c3nsc4ccccc34)CC2)cc2c1NC(=O)CC2(C)C
[1]
  Potency: inconclusive: 68.6 µM [single point]
[8]
  Potency: inactive
[9]
  Potency: inconclusive: 68.6 µM [inhibitor, single point]
[5]
  Potency: inconclusive: 61.6 µM [cytotoxic]
[6]
  Potency: active: 49 µM
[10]
  Potency: active: 3.06 µM

## Clc1ccccc1C(c1ccccc1)(c1ccccc1)n1ccnc1
[1]
  Potency: inconclusive: 14.3 µM [activator, single point] and inconclusive: 24.3 µM [cytotoxic, partial curve]
[2]
  Potency: inconclusive: 14.3 µM [cytotoxic] and active: 19.3 µM
[7]
  Potency: active: 54.5 µM
[9]
  Potency: active: 10.1 µM and active: 9.69 µM
[4]
  Potency: inconclusive: 12.9 µM [cytotoxic, partial curve, poor fit] and inconclusive: 49 µM [cytotoxic, partial curve]
[5]
  Potency: active: 7.23 µM
[6]
  Potency: inconclusive: 54.9 µM [cytotoxic, single point]

## CC1=C(/C=C/C(C)=C/C=C/C(C)=C\C(=O)O)C(C)(C)CCC1
[1]
  Potency: inconclusive: 68.8 µM [cytotoxic, single point]
[2]
  Potency: inconclusive: 68.8 µM [cytotoxic, single point]
[3]
  Potency: inconclusive: 61.3 µM [falling, partial curve]
[9]
  Potency: active: 61.3 µM
[4]
  activation: inconclusive: 12.2%
[6]
  Potency: inconclusive: 61.8 µM [cytotoxic, single point]

## CCCCCCCCCCCCc1ccc(O)cc1
[1]
  Potency: inconclusive: 24.3 µM [cytotoxic, full curve]
[2]
  Potency: active: 24.3 µM
[3]
  Potency: inconclusive: 68.6 µM [falling, single point]
[9]
  Potency: active: 2.73 µM
[4]
  Potency: inconclusive: 13.8 µM [cytotoxic, full curve]
[5]
  Potency: inconclusive: 24.5 µM [cytotoxic, full curve]
[6]
  Potency: active: 21.9 µM

## Clc1ccc(C(c2ccccc2Cl)C(Cl)Cl)cc1 (centres undefined)
[1]
  Potency: inconclusive: 29.8 µM [cytotoxic] and active: 68.6 µM
[2]
  Potency: inconclusive: 68.6 µM [cytotoxic, single point]
[3]
  Potency: inconclusive: 37.6 µM [falling, single point]
[7]
  Potency: inconclusive: 48.6 µM [cytotoxic, partial curve, poor fit]
[4]
  Potency: inconclusive: 26.8 µM [cytotoxic] and inconclusive: 54.9 µM [cytotoxic, single point]
[5]
  Potency: active: 10.7 µM and active: 27.5 µM
[6]
  Potency: inconclusive: 54.9 µM [cytotoxic, single point]

## O=C1c2ccccc2C(=O)N1SC1CCCCC1
[1]
  Potency: inconclusive: 68.5 µM and inconclusive: 61.1 µM
[2]
  Potency: active: 68.5 µM and inactive
[7]
  Potency: inconclusive: 68.5 µM [cytotoxic, single point] and inconclusive: 68.6 µM [cytotoxic, single point]
[9]
  Potency: active: 54.4 µM and active: 48.6 µM
[4]
  Potency: inconclusive: 61.6 µM [cytotoxic] and inconclusive: 54.9 µM [cytotoxic]
[5]
  Potency: inconclusive: 61.6 µM [inhibitor, single point] and inconclusive: 61.6 µM [cytotoxic, single point]
[6]
  Potency: inconclusive: 61.6 µM [cytotoxic] and inconclusive: 54.9 µM [cytotoxic]

## O=C1C=CC(=O)N1c1ccccc1
[1]
  Potency: inconclusive: 54.5 µM [falling, partial curve]
[2]
  Potency: active: 48.6 µM
[3]
  Potency: inconclusive: 61.1 µM
[7]
  Potency: inconclusive: 61.1 µM [cytotoxic, single point]
[4]
  Potency: inconclusive: 54.9 µM [single point]
[5]
  Potency: inconclusive: 54.9 µM [cytotoxic, single point]
[6]
  Potency: inconclusive: 61.6 µM [cytotoxic, single point]

## CN(C)CCC=C1c2ccccc2CCc2ccccc21
[1]
  Potency: inconclusive: 4.73 µM [fluorescent] and inconclusive: 5.45 µM [fluorescent, full curve] and active: 61.1 µM
[2]
  Potency: inconclusive: 68.6 µM [cytotoxic, single point]
[3]
  Potency: inconclusive: 68.6 µM [falling, single point]
[7]
  Potency: inactive
[9]
  Potency: inconclusive: 13.3 µM [activator] and inconclusive: 6.11 µM [activator, full curve] and inconclusive: 38.6 µM [cytotoxic, partial curve, poor fit]
[5]
  Potency: inconclusive: 55 µM [fluorescent, partial curve, poor fit] and inconclusive: 17.4 µM [activator, full curve]
  activity change, negative = inhibition: inconclusive: 10%
[10]
  Potency: inconclusive: 68.6 µM [cytotoxic, single point]

## COC(=O)[C@]1(C)CCC[C@@]2(C)[C@H]1CC=C1C=C(C(C)C)CC[C@@H]12
[1]
  Potency: inconclusive: 68.6 µM [cytotoxic]
[2]
  Potency: inconclusive: 0.545 µM [cytotoxic, full curve, poor fit]
[3]
  Potency: inconclusive: 68.6 µM [falling, partial curve, poor fit]
[5]
  Potency: inactive
[10]
  Potency: inconclusive: 68.6 µM [cytotoxic, single point]

## S=C(SSSSSSC(=S)N1CCCCC1)N1CCCCC1
[1]
  activation: inconclusive: 1.6% [at 34.7 µM]
[8]
  Potency: inconclusive: 15.1 µM [activator, single point]
[9]
  Potency: inconclusive: 0.151 µM [inhibitor, partial curve]
[5]
  activity change, negative = inhibition: inconclusive: -7.8% [at 27 µM]

## CC1=CC(=O)c2ccccc2C1=O
[1]
  Potency: inconclusive: 33.5 µM [activator, single point] and active: 38.6 µM
[2]
  Potency: inconclusive: 33.5 µM [cytotoxic, single point]
[7]
  Potency: active: 54.5 µM
[9]
  Potency: inconclusive: 33.5 µM [activator, partial curve] and inconclusive: 6.86 µM [activator, full curve]
[11]
  Potency: inconclusive: 39.8 µM [fluorescent, partial curve, poor fit]
[12]
  Potency: inconclusive: 35.5 µM [fluorescent, partial curve, poor fit]
[4]
  Potency: inconclusive: 49 µM [cytotoxic, partial curve]
[5]
  Potency: inconclusive: 49 µM [cytotoxic, partial curve]
  activity change, negative = inhibition: inconclusive: 12%

## CCOC(=O)N1CCC(=C2c3ccc(Cl)cc3CCc3cccnc32)CC1
[1]
  Potency: active: 23.7 µM and active: 61.1 µM
[2]
  Potency: inconclusive: 33.5 µM [cytotoxic, single point] and active: 68.6 µM
[7]
  Potency: inconclusive: 16.8 µM [cytotoxic, partial curve] and active: 27.3 µM
[9]
  Potency: active: 29.8 µM and active: 54.5 µM
[4]
  Potency: inconclusive: 54.9 µM [falling, single point]
[5]
  Potency: inconclusive: 21.3 µM [inhibitor, partial curve, poor fit] and inconclusive: 61.6 µM [cytotoxic, single point]
[10]
  Potency: active: 8.41 µM and active: 8.63 µM

## CCCCCCCCCCCCN
[1]
  Potency: inactive
[2]
  Potency: active: 27.3 µM
[3]
  Potency: inconclusive: 69.1 µM [falling, single point] and inconclusive: 68.6 µM [falling, single point] and inconclusive: 69.6 µM [falling, single point]
[7]
  Potency: inconclusive: 77 µM [cytotoxic]
[4]
  Potency: inactive and inconclusive: 24.5 µM [cytotoxic]
[6]
  Potency: inconclusive: 61.6 µM [cytotoxic, single point]
[10]
  Potency: inconclusive: 62 µM [cytotoxic]
